± gives the standard deviation of the averaged measurements. This is one part of the list.
Tested on: PfAP2-LT AP2 domain (GST-tagged)
Experiment: gcPBM binding intensity (ln(normalized median fluorescence intensity)); higher = stronger DNA binding
How it was run: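 Plasmodium falciparum DNA-binding domains carrying a GST tag were expressed in E. coli and applied for 1 h, at about 25 μg on average, to an Agilent 4 × 180k array. The array held primer-extended double-stranded 36-bp intergenic genomic probes together with negative controls, and binding took place in 1× PBS with 1% milk, 0.2 mg/ml BSA, 0.5% salmon testes DNA and 0.03% Triton X-100. An Alexa488 anti-GST antibody detected bound protein, and the array was scanned at 488 nm. Binding intensity is taken as the highest Masliner-normalised natural-log median intensity across replicate spots of either probe orientation.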

Row | Sequence | gcPBM binding intensity (ln)
1 | TACTTAAAAAAAAAAAAAATAAATATTATGTATTAT [CACACA_negctrl_site138] | 8.24 ± 0.59
2 | ATATTATACATTTATACACACATAAAAAGACAAAAA [CACACA_site3565] | 9.07 ± 0.42
3 | AAACAATTTGGGTGTACACATGATACGTTCGATGAG [CACACA_site5160] | 9.04 ± 0.42
4 | ATAACCTAATAATACACACACATGAATATAAATAAC [CACACA_site6584] | 9.52 ± 0.25
5 | ATATATATTTTATACGCATGTAATTATTATGTGGTC [TGCATGCA_site45] | 9.04 ± 0.39
6 | TATATTAAACAATATACACACATTAATGTATCCATA [CACACA_site5523] | 8.9 ± 0.45
7 | TTATATATATATATATGTACACATATATAACATGAT [XGTACX_site6643] | 9.19 ± 0.28
8 | TGTAATATTTTTCATGCATGCTCTTCTTTTACATAA [TGCATGCA_site144] | 9.11 ± 0.35
9 | ATAATTTATATTACTTGTACATATTTATATGAACGA [XGTACX_site3610] | 8.68 ± 0.48
10 | AAAATTAAAAATAACACACACATATTTATATTTATA [CACACA_site7329] | 9.16 ± 0.35
11 | TATTCTTTTATGAATACACACATATACGAAAATATT [CACACA_site6585] | 8.73 ± 0.43
12 | AAGGAGAAATATTGCACACGTGCAAAATGGTATGAG [CACACA_site259] | 9.25 ± 0.47
13 | CTTAATTTTTTTTAATGTACATACATATAAACCTTT [XGTACX_site2233] | 8.63 ± 0.52
14 | AGTTATATGTACTACACACGTACACAAAATAAGATA [CACACA_site3719] | 9.16 ± 0.42
15 | AGGTGTCATAGATGCACACAAAAGTAACACGCACCT [CACACA_site4418] | 9.28 ± 0.41
16 | AAAAGGTTATCAAAATGTACGAAATGTTACAAAAAT [XGTACX_site6215] | 8.79 ± 0.5
17 | AAATGTTAAAAAGAGAAAAACAATAAAAAACAATTA [CACACA_negctrl_site1044] | 8.61 ± 0.54
18 | TACTATTATTATTGCACACTTATTATCCCTCGGATA [CACACA_site162] | 9.03 ± 0.49
19 | TGATCATAGAAACACACACACAAAAAAAAAAAAAAA [CACACA_site4008] | 9.31 ± 0.52
20 | AATATATATTAATACACACACACATATATATATATA [CACACA_site3786] | 9.8 ± 0.13
21 | AGACGATAAATCATTCATTCATTTACCATCCAAAAA [CACACA_negctrl_site802] | 8.54 ± 0.42
22 | TTTTAATTAGTACAAACACACATATACAGACAAAAA [CACACA_site2563] | 8.96 ± 0.38

Row | Sequence | gcPBM binding intensity (ln)
23 | TAATATAGAAAATGCATACACACTTTATATATATAT [CACACA_site911] | 8.93 ± 0.35
24 | CTTTTTAATGAATACACACACACACCGATATATATA [CACACA_site5296] | 9.88 ± 0.2
25 | GAATAATATGGACATACACACATATACATACCTATA [CACACA_site7075] | 9.27 ± 0.44
26 | AAATATTATTGACGATGTACTTCTATTCATAAGTAT [XGTACX_site3964] | 8.7 ± 0.35
27 | TAAAACTTATACAAATGTACAAATATATATATATAT [XGTACX_site4661] | 9.2 ± 0.22
28 | AAAATTTTTTTTGGCGCACACTAATAATAAAATATA [CACACA_site470] | 8.62 ± 0.46
29 | TATATATGTATGTATGTACACACAAAAAATGGAATA [CACACA_site9235] | 9.41 ± 0.46
30 | AAGAGAGAGAAATATGCACACATAAGGGAAATAAAT [CACACA_site8300] | 9.29 ± 0.56
31 | TTTTTTTAAAACAAAAAAAAAAAAAAAAAAAAAAAA [TGCATGCA_negctrl_site418] | 8.04 ± 0.24
32 | TTCTTTTTTATTTATACATGCAATAAAAAATTGATT [TGCATGCA_site730] | 8.48 ± 0.35
33 | AATAAACATTATTTTCGTATTCCAATTCTTTTTTTT [XGTACX_negctrl_site374] | 8.55 ± 0.52
34 | TTGATAAAATCACTGGTGCATGTAGATATATAATAT | 8.8 ± 0.35
35 | AAAAAAAAAAGAAAAAGTACATACATACATATATAT [XGTACX_site6405] | 8.78 ± 0.45
36 | TTATTATTAGAAAAAAGTACACATATAAAATGTTAC [XGTACX_site6426] | 8.46 ± 0.5
37 | GTAAAATTAAAAATAACACACAAAAAAAAAAAAAAA [CACACA_site800] | 8.8 ± 0.43
38 | GGATACATATGTAAAAGTACACATGAATATATACAT [XGTACX_site6469] | 9.14 ± 0.4
39 | AGCCACAATACGGAAACACACAAGTTATTTTATCAT [CACACA_site2724] | 9.16 ± 0.47
40 | AATGAAGACTTTTTTACACACTTCATATCTTATAGA [CACACA_site7046] | 8.87 ± 0.35
41 | TTTTAACGTAATTCAAATGAGCAGAATTTTTTAAAA [CACACA_negctrl_site1800] | 8.13 ± 0.35
42 | TTTTTATGAATTCTTTTGTTAATAATAATATGTTGT [TGCATGCA_negctrl_site198] | 8.56 ± 0.45
43 | AATATTTTTAATTAATGTACATATTTATTATATAAA [XGTACX_site5112] | 8.36 ± 0.4
44 | AAATTTTTTCCGATTTGTACTTATATTTCTTTATTA [XGTACX_site1762] | 8.82 ± 0.47

Row | Sequence | gcPBM binding intensity (ln)
45 | ATCTTTCAATAATTCACACATATATATATATATATA [CACACA_site4598] | 9.36 ± 0.54
46 | CTATTACAAAGAAATTGTACATATATATATAAAAAC [XGTACX_site8800] | 8.82 ± 0.37
47 | ATATATATATATGTACACATATATGTGTTTGTTTTT [GTGCAC_negctrl_site5] | 9.76 ± 0.29
48 | ATAATATATATATTTTGTACACATGAAAAGGAGGAT [XGTACX_site5034] | 9.07 ± 0.36
49 | TAAATAAATTTATGTACACACACAAATAAATACATA [CACACA_site5107] | 9.26 ± 0.38
50 | AAAAAAAAGAAAAACACACACATATTTATTTATAAC [CACACA_site6600] | 9.25 ± 0.47
51 | TATATATATATATATAGTACACATATCACATAAATG [XGTACX_site6379] | 9.47 ± 0.37
52 | ATAATATATGTATGTATGCACTTTTATTATTTTTTT | 8.93 ± 0.52
53 | TATATATTAAATTATAGTACACATTATATATAATTA [XGTACX_site4841] | 8.43 ± 0.35
54 | TAAATCCGCACGCACACACACATATTAATAAAAAAA [CACACA_site7800] | 9.61 ± 0.38
55 | TTATTTTTATTATAAATTATAAAATATAAATAAATA [GTGCAC_negctrl_site616] | 7.89 ± 0.52
56 | GAAACTATGTAATGCACACCAAAATAAAATTATTAA [CACACA_site1904] | 8.96 ± 0.46
57 | TCTTCTTAACCAACTATGAAAAGGAAAAATATAACA [GTGCAC_negctrl_site565] | 8.31 ± 0.45
58 | CATGAATTTTTTTAATGTACATTCACATCATAAAAA [XGTACX_site7475] | 8.47 ± 0.39
59 | ATATATTATATATATAGTACGTATATAAATTTAATT [XGTACX_site5041] | 8.73 ± 0.4
60 | ATTATAAAAAAGAAACGTACATATTTATTGTTTTTT [XGTACX_site2161] | 8.61 ± 0.45
61 | AATAATTTAATACATACACACGTATATCTTTTTTTT [CACACA_site8632] | 8.89 ± 0.4
62 | TATATATATAACATATGTACATATATTTATAAATAC [XGTACX_site5484] | 8.68 ± 0.4
63 | TATATAAATATACACCCACACACATATATATATATA [CACACA_site9247] | 9.61 ± 0.28
64 | TATATTCCACTCATTGATTTTCTCTTCTCACAAAAA [CACACA_negctrl_site1016] | 8.47 ± 0.46
65 | ATCGTAGTATAATATGAACACACACCCACCCACAAA [CACACA_site8616] | 9.71 ± 0.29
66 | TATAAAAAAAAATGTGGTACATATTTCCATTTTCCA [XGTACX_site4571] | 8.53 ± 0.36

Row | Sequence | gcPBM binding intensity (ln)
67 | TATAATAATACTTATTGTACTATTAGTTTAATTCAT [XGTACX_site6638] | 8.61 ± 0.48
68 | TTTTTAATCCTTTGCGCATGTAAAATTATATATTTT [TGCATGCA_site306] | 8.76 ± 0.42
69 | TATATATATATGTGTACACAAAAAATATTATATTAT [CACACA_site5505] | 8.94 ± 0.44
70 | ATTCTATTTTTAAGTACACACATATATATATATATA [CACACA_site3658] | 9.27 ± 0.042
71 | ACATAATTATTATGCACACATATTTTTATGTATTTA [CACACA_site698] | 9.12 ± 0.39
72 | ATACTTTATTAATATTGTACAAAATAAGAAAAAAAA [XGTACX_site310] | 8.59 ± 0.47
73 | CACAACAGGGTTGAGGTGCGTAAAAATAGTAGAATA [GTGCAC_site9523] | 8.74 ± 0.6
74 | ACATAAAAATTATGCACACTTAATAAAGCGAAATGT [CACACA_site3183] | 9.1 ± 0.39
75 | TTTTGAAGTAATACATGTACTTAAATTACTAAAAAA [XGTACX_site1955] | 8.46 ± 0.43
76 | ACTTTGCGTTAAAAGAGTACATAATATTTTTTTTTT [XGTACX_site7533] | 8.51 ± 0.42
77 | GCTTATTTTAATTCTTGTACTTATTTATATACAAAT [XGTACX_site2099] | 8.84 ± 0.36
78 | TTGAAAATTCTTAAGGCACACACATATATAATATAT [CACACA_site8088] | 9.07 ± 0.38
79 | TAATGGTGTTCATGTGGTACACTTTATAAATTGGCA [XGTACX_site729] | 8.66 ± 0.43
80 | AAACTAACTCTAACATGTACATATATATATATATAT [XGTACX_site6949] | 9.59 ± 0.057
81 | ATCACAAAAAAGTTCATACACACAACCTATTTATAT [CACACA_site2888] | 9.07 ± 0.37
82 | AAATCAAATTTTTAGAGTACTTAAGTTTTCTATATA [XGTACX_site7827] | 8.42 ± 0.44
83 | TAATATATTAATATATGTACATATTTATATATCTAC [XGTACX_site7117] | 8.81 ± 0.51
84 | TCCCCATATGTTTTGTGTACATATATATTTTTTTGT [XGTACX_site75] | 9.16 ± 0.48
85 | ATAAAGTCTATATTATGTACATATAATATAAATATT [XGTACX_site6703] | 8.65 ± 0.45
86 | AAAAAACTTCACATATGTACTTAAAAAAAATTAAAA [XGTACX_site2368] | 8.39 ± 0.47
87 | GAACATTACGTAAATAAATAAATAAAAATAAATACA [XGTACX_negctrl_site25] | 8.98 ± 0.54
88 | TATTGTCTTGTATATGCATGTAGACCAAATATGTAA [TGCATGCA_site9] | 8.6 ± 0.41
